Laboratory results reported in patent US10501552B2, “Multivalent molecules comprising DR5-binding domains” (MacroGenics, Inc., priority 2015, dated 2019).
“Also recorded” adds a separate entry of the source.

B1: DR5 mAb 1 × DR5 mAb 2 Fc diabody: bispecific tetravalent E-coil/K-coil Fc diabody, wild-type IgG1 Fc; chains SEQ ID NO:116 and 118 (protein)
chain 1: DIVLTQSPASLAVSLGQRATISCRASKSVSSSGYSYMHWYQQKPGQPPKVLIFLSSNLDSGVPARFSGSGSGTDFTLNIHPVEDGDAATYYCQHSRDLPPTFGGGTKLEIKGGGSGGGGKVQLQQSGAELVKPGASVKLSCKASGYTFTEYILHWVKQKSGQGLEWIGWFYPGNNNIKYNEKFKDKATLTADKSSSTVYMELSRLTSEDSAVYFCARHEQGPGYFDYWGQGTTLTVSSASTKGEVAACEKEVAALEKEVAALEKEVAALEKL[sequence of human IgG1 Fc with C220S (EU numbers) omitted]
chain 2: DIVMTQSHKFMSTSVGDRVSITCKASQDVNTAVAWYQQKPGQSPKLLIYWASTRHTGVPDRFTGSGSGTDYTLTIKSVQAEDLTLYYCQQHYITPWTFGGGTKLEIKGGGSGGGGEVKFLESGGGLVQPGGSLKLSCVASGFDFSRYWMSWVRQAPGKGLEWIGEINPDSNTINYTPSLKDKFIISRDNAKNTLYLQMTKVRSEDTALYYCTRRAYYGNPAWFAYWGQGTLVTVSAASTKGKVAACKEKVAALKEKVAALKEKVAALKE
modifications: First Polypeptide Chain of an Exemplary DR5 mAb 1 x DR5 mAb 2 Fc diabody; Second Polypeptide Chain of an Exemplary DR5 mAb 1 x DR5 mAb 2 Fc diabody
B2: DR5 mAb 2 × DR5 mAb 1 Fc diabody: bispecific tetravalent E-coil/K-coil Fc diabody, wild-type IgG1 Fc; chains SEQ ID NO:122 and 124 (protein)
chain 1: DIVMTQSHKFMSTSVGDRVSITCKASQDVNTAVAWYQQKPGQSPKLLIYWASTRHTGVPDRFTGSGSGTDYTLTIKSVQAEDLTLYYCQQHYITPWTFGGGTKLEIKGGGSGGGGEVKFLESGGGLVQPGGSLKLSCVASGFDFSRYWMSWVRQAPGKGLEWIGEINPDSNTINYTPSLKDKFIISRDNAKNTLYLQMTKVRSEDTALYYCTRRAYYGNPAWFAYWGQGTLVTVSAASTKGEVAACEKEVAALEKEVAALEKEVAALEKL[sequence of human IgG1 Fc with C220S (EU numbers) omitted]
chain 2: DIVLTQSPASLAVSLGQRATISCRASKSVSSSGYSYMHWYQQKPGQPPKVLIFLSSNLDSGVPARFSGSGSGTDFTLNIHPVEDGDAATYYCQHSRDLPPTFGGGTKLEIKGGGSGGGGKVQLQQSGAELVKPGASVKLSCKASGYTFTEYILHWVKQKSGQGLEWIGWFYPGNNNIKYNEKFKDKATLTADKSSSTVYMELSRLTSEDSAVYFCARHEQGPGYFDYWGQGTTLTVSSASTKGKVAACKEKVAALKEKVAALKEKVAALKE
modifications: First Polypeptide Chain of an Exemplary DR5 mAb 2 x DR5 mAb 1 Fc diabody; Second Polypeptide Chain of an Exemplary DR5 mAb 2 x DR5 mAb 1 Fc diabody

What was measured:
HPAFII = assay: […]-GLO cell viability assay with vorinostat; format: cell-based; settings: HPAFII (Pancreas); 1 μg/ml + 10 μM Vorinostat
ES2 = assay: […]-GLO cell viability assay with vorinostat; format: cell-based; settings: ES2 (Ovary); 1 μg/ml + 10 μM Vorinostat
BT474 = assay: […]-GLO cell viability assay with vorinostat; format: cell-based; settings: BT474 (Breast); 1 μg/ml + 10 μM Vorinostat
PC3 = assay: […]-GLO cell viability assay with vorinostat; format: cell-based; settings: PC3 (Prostate); 1 μg/ml + 1 μM Vorinostat
AsPC1 = assay: […]-GLO cell viability assay with vorinostat; format: cell-based; settings: AsPC1 (Pancreas); 1 μg/ml + 1 μM Vorinostat
SKMES = assay: MTS cell proliferation assay; format: cell-based, human; settings: SKMES (Lung); no cross-linking antibody
Procedure: (§1) Cell lines obtained from ATCC were cultured under standard tissue culture conditions. Each cell line was plated at ˜2×10^4 cells/well (in 96-well plates), and incubated overnight in F12/DMEM media supplemented with 10% FBS. […] Cell viability was determined using Promega CellTiter 96® AQeous Non-Radioactive Cell Proliferation Assay (Cat # G5430) essentially as described in the manufacturer's instructions to assay the amount of soluble formazan produced by cellular reduction of the MTS, which is a measure of the number of viable cells in the culture. Briefly, MTS/PMS regent was added to the wells and the absorbance at 490 nm (referenced at […]) was read in a Molecular Devices ThermoMax microplate reader.
(§2) Similar studies were performed over a range of anti-DR5 mAb concentrations from ˜10^−3 nM to ˜10^2 nM. The data for COLO205 cells is provided in FIG. 13, and are representative of cell lines sensitive to the antibodies of the invention.
(§3) The cytotoxicity of tetravalent DR5-Binding Molecules of the present invention was investigated. […] His-tagged TRAIL (R&D systems) was used as a positive control.
(§4) Similar studies were performed over a range of anti-DR5 mAb concentrations from ˜10^−3 nM to ˜10^2 nM.

LNCap [1] = assay: MTS cell proliferation assay; format: cell-based, human; settings: LNCap (Prostate); no cross-linking antibody
Procedure: as §1, §2, §3, §4

DU145 [2] = assay: MTS cell proliferation assay; format: cell-based, human; settings: DU145 (Prostate); no cross-linking antibody
Procedure: as §1, §2, §3, §4

A549 [3] = assay: MTS cell proliferation assay; format: cell-based, human; settings: A549 (Lung); no cross-linking antibody
Procedure: as §1, §2, §3, §4

SKBR3 [4] = assay: MTS cell proliferation assay; format: cell-based, human; settings: SKBR3 (Breast); no cross-linking antibody
Procedure: as §1, §2, §3, §4

22RV1 = assay: […]-GLO cell viability assay with vorinostat; format: cell-based; settings: 22RV1 (Prostate); 1 μg/ml + 10 μM Vorinostat
SKBR3 [5] = assay: […]-GLO cell viability assay with vorinostat; format: cell-based, human; settings: SKBR3 (Breast); 1 μg/ml + 1 μM Vorinostat
MDA-MB-361 = assay: […]-GLO cell viability assay with vorinostat; format: cell-based; settings: MDA-MB-361 (Breast); 1 μg/ml + 10 μM Vorinostat
SKOV3 = assay: […]-GLO cell viability assay with vorinostat; format: cell-based; settings: SKOV3 (Ovary); 1 μg/ml + 1 μM Vorinostat
MCF7 = assay: […]-GLO cell viability assay with vorinostat; format: cell-based; settings: MCF7 (Breast); 1 μg/ml + 10 μM Vorinostat
786O = assay: […]-GLO cell viability assay with vorinostat; format: cell-based; settings: 786O (Kidney); 1 μg/ml + 1 μM Vorinostat
LNCap [6] = assay: […]-GLO cell viability assay with vorinostat; format: cell-based, human; settings: LNCap (Prostate); 1 μg/ml + 10 μM Vorinostat
A549 [7] = assay: […]-GLO cell viability assay with vorinostat; format: cell-based, human; settings: A549 (Lung); 1 μg/ml + 10 μM Vorinostat
DU145 [8] = assay: […]-GLO cell viability assay with vorinostat; format: cell-based, human; settings: DU145 (Prostate); 1 μg/ml + 10 μM Vorinostat
COLO205 = assay: MTS cell proliferation assay; format: cell-based; settings: COLO205 (Colon); no cross-linking antibody
Procedure: as §1, §2, §3, §4
His-tagged TRAIL (R&D systems) was used as a positive control.

Calu3 = assay: […]-GLO cell viability assay with vorinostat; format: cell-based; settings: Calu3 (Lung); 1 μg/ml + 1 μM Vorinostat
prostate cancer tissue = assay: tissue staining with labeled molecule; format: binding; settings: 0.625 μg/mL
From the text: (§5) The results presented in FIGS. 15A-15B, 16, and Table 10, thus indicate that a tetravalent DR5-Binding Molecule (bispecific for two epitopes of DR5) was capable of specifically binding to cancer cells.

lung cancer tissue = assay: tissue staining with labeled molecule; format: binding; settings: 0.625 μg/mL
From the text: as §5

[9] = test system: normal tissue (colon, liver, lung, pancreas, kidney, heart); assay: tissue staining with labeled molecule; format: binding; settings: 0.625 μg/mL
From the text: as §5

breast cancer tissue = assay: tissue staining with labeled molecule; format: binding; settings: 0.625 μg/mL
From the text: as §5

colon cancer tissue = assay: tissue staining with labeled molecule; format: binding; settings: 0.625 μg/mL
From the text: as §5

Lung = assay: histology staining (Table 10); format: binding; settings: 0.625 ug/mL
From the text: as §5

Pancreas = assay: histology staining (Table 10); format: binding; settings: Pancreas (6N); 0.625 ug/mL
From the text: as §5

| Molecule | Net Gain (Average % Growth Inhibition) (HPAFII) [%] | Net Gain (Average % Growth Inhibition) (ES2) [%] | Net Gain (Average % Growth Inhibition) (BT474) [%] | Net Gain (Average % Growth Inhibition) (PC3) [%] | Net Gain (Average % Growth Inhibition) (AsPC1) [%] | % Inhibition (Average) (SKMES) [%] | % Inhibition (Average) (LNCap [1]) [%] | % Inhibition (Average) (DU145 [2]) [%] | % Inhibition (Average) (A549 [3]) [%] | % Inhibition (Average) (SKBR3 [4]) [%] | Net Gain (Average % Growth Inhibition) (22RV1) [%] | Net Gain (Average % Growth Inhibition) (SKBR3 [5]) [%] | Net Gain (Average % Growth Inhibition) (MDA-MB-361) [%] | Net Gain (Average % Growth Inhibition) (SKOV3) [%] | Net Gain (Average % Growth Inhibition) (MCF7) [%] | Net Gain (Average % Growth Inhibition) (786O) [%] | Net Gain (Average % Growth Inhibition) (LNCap [6]) [%] | Net Gain (Average % Growth Inhibition) (A549 [7]) [%] | Net Gain (Average % Growth Inhibition) (DU145 [8]) [%] | % Inhibition (Average) (COLO205) [%] | further results |
| --- | --- | --- | --- | --- | --- | --- | --- | --- | --- | --- | --- | --- | --- | --- | --- | --- | --- | --- | --- | --- | --- |
| B1 | 49.19 | 87.60 | 75.26 | 11.32 | 14.27 | 75.6 | 11.82 | 12.14 | 2.63 | 13.07 | 5.36 | 38.50 | 83.21 | 55.63 | 4.96 | 21.12 | 20.41 | 36.34 | 1.32 | 88.89 | Net Gain (Average % Growth Inhibition) (Calu3): 10.13% |
| B2 | 45.01 | 89.61 | 64.18 | 10.22 | 12.91 | 68.97 | 12.71 | 12.34 | 2.8 | 8.47 | 6.32 | 37.04 | 80.65 | 55.97 | 4.35 | 13.49 | 16.63 | 34.95 | 3.43 | 88.53 | labeling of cells of prostate cancer tissue (prostate cancer tissue): strongly label; labeling of cells of lung cancer tissue (lung cancer tissue): strongly label; labeling of cells of normal tissue [9]: failed to label; labeling of cells of breast cancer tissue (breast cancer tissue): strongly label; labeling of cells of colon cancer tissue (colon cancer tissue): strongly label; Net Gain (Average % Growth Inhibition) (Calu3): 11.03%; histology observation (Lung; Lung (6N)): Macrophage 2+ (c) rare; endo 2+ (c); histology observation (Lung; Lung, three separate table lines): Endo 1+ (c) very rare; others (—); also recorded: Macrophage 3+ (c, m) occasional;; also recorded: Macrophage 3+ (c) occasional mixed; histology observation (Pancreas): Secreted acinar epi ± (c) very rare |
